Test results reported in the GPR68 mutational scans of Howard et al. (2025).

B1: GPR68, Q15743 (parent)
chain: MGNITADNSSMSCTIDHTIHQTLAPVVYVTVLVVGFPANCLSLYFGYLQIKARNELGVYLCNLTVADLFYICSLPFWLQYVLQHDNWSHGDLSCQVCGILLYENIYISVGFLCCISVDRYLAVAHPFRFHQFRTLKAAVGVSVVIWAKELLTSIYFLMHEEVIEDENQHRVCFEHYPIQAWQRAINYYRFLVGFLFPICLLLASYQGILRAVRRSHGTQKSRKDQIQRLVLSTVVIFLACFLPYHVLLLVRSVWEASCDFAKGVFNAYHFSLLLTSFNCVADPVLYCFVSETTHRDLARLRGACLAFLTCSRTGRAREAYPLGAPEASGKSGAQGEEPELLTKLHPAFQTPNSPGSGGFPTGRLA

Legend:
[1] = variants of: B1; assay: cAMP reporter score (Enrich2 score, wild type = 0); higher = more signal; HEK293T, FACS bins
[2] = variants of: B1; assay: surface expression score (Enrich2 score, wild type = 0); higher = more signal; HEK293T, FACS bins

Variant | cAMP reporter score ([1]; pH 5.5) | cAMP reporter score ([1]; pH 6) | cAMP reporter score ([1]; pH 6, modulator: ogerin) | cAMP reporter score ([1]; pH 6.5, modulator: ogerin) | surface expression score [2]
G332H | 0.611 | 0.361 | -0.196 | -0.275 | 1.42
G332del | 0.795 | 0.111 | 0.888 | 0.669 | 1.62
Q334_G335del | 0.582 | 0.04 | 0.394 | -0.054 | 0.398
A324_P325insGS | 0.502 | 0.766 | 0.841 | 0.754 | 0.452
K330_S331del | 1.05 |  | 0.618 | 0.725 | 0.309
A324_P325insGSG | 0.52 | 1.02 | 1.25 | 1.26 | 0.646
A327_G329del | 1.11 | 1.03 | 1.47 | 0.828 | 0.056
G329_K330insG | 0.769 | 0.337 | 0.852 | 0.302 | 0.715
K330_S331insGSG | 0.198 | -0.117 | 0.175 | 0.308 | 0.555
E337_E339del | -0.552 | 0.334 | 0.001 | -0.185 | -0.658
G332_A333insGSG | 0.106 | -0.024 | 0.356 | 0.896 | 0.352
E326_A327del | 1.62 | 0.012 | 1.21 | 1.32 | 1.36
E337_P338insGS | 0.355 | -0.534 | 1.23 | 0.641 | 1.67
G329_K330insGSG | 0.649 | 0.904 | 0.732 | 0.673 | 1.43
Q334_G335insGS | 1.24 |  | 0.739 | 1.38 | 
S331_G332insGS | 0.723 | 1.06 | 0.545 | 0.989 | 0.412
K330_G332del | 1.34 | 0.52 | 1.42 | 0.897 | 1.11
S331H | -0.048 | 0.251 | 0.611 | 0.315 | 0.156
S331I | -0.729 |  | 0.042 |  | -0.957
S331G | 1.03 | 0.851 |  |  | 1.64
S331C | 0.89 | 0.573 | 0.376 | 0.324 | 0.458

Variant | cAMP reporter score ([1]; pH 5.5) | cAMP reporter score ([1]; pH 6) | cAMP reporter score ([1]; pH 6, modulator: ogerin) | cAMP reporter score ([1]; pH 6.5, modulator: ogerin) | surface expression score [2]
S331F | 0.581 |  | 0.405 | 0.918 | -0.096
S331W | 1.29 | 1.79 | 1.26 | 2.46 | 
S331P | 0.006 | -0.383 | 0.757 | 0.274 | 1.29
S331D | 0.508 | -0.049 | 0.617 | 0.717 | 0.095
S331Y | -0.465 | -0.342 | -0.649 | -1.42 | -1.82
S331R | 1.07 | -0.733 | 0.887 | 1.03 | 1.55
S331K | 0.02 | 0.34 | 0.253 | 0.276 | 0.651
S331L | 2.21 | 1.04 | 2.04 | 1.77 | 0.94
S331Q | 1.2 | 0.179 | 0.571 | 0.89 | 1.19
S331A | 1.64 |  | 2.42 | 2.31 | 0.337
S331M | 0.207 | 1.69 | 1.2 | 1.8 | 0.764
S331T | 1.9 | 1.03 | 1.56 | 1.66 | 2.14
S331E | 0.308 | -0.807 | 0.208 | -0.317 | 0.113
S331N | 0.385 |  | -0.729 | -0.401 | -0.312
K330S | -0.618 | -1.26 | -0.517 | -0.315 | -1.19
K330N | -0.351 | 0.643 | -0.077 | -0.38 | 0.588
K330P | 0.561 | 0.182 | 0.608 | 0.743 | 0.498
K330Y | 0.44 |  |  | -0.424 | -1.01
K330T | 0.792 | -1.01 | 0.601 | 0.24 | 0.686
K330F | 0.269 | -0.327 | 0.476 | -0.349 | -0.514
K330I | 1.73 | -0.344 | 1.45 | 1.23 | 0.954

Variant | cAMP reporter score ([1]; pH 5.5) | cAMP reporter score ([1]; pH 6) | cAMP reporter score ([1]; pH 6, modulator: ogerin) | cAMP reporter score ([1]; pH 6.5, modulator: ogerin) | surface expression score [2]
K330V | 0.337 |  | -0.293 | -0.34 | -0.128
K330D | -1.4 | -0.934 | -0.793 | -1.09 | -1.11
K330A | 0.649 | -0.229 | 0.47 | 1 | 0.986
K330Q | -0.104 | 0.31 |  | 0.527 | 1.48
K330C | -0.651 | -1.39 | -0.463 | -1.33 | -0.843
K330G | 0.938 | 0.147 | 1.82 | 1.63 | 2.05
K330M | 0.683 | 1.48 | 0.886 | -0.079 | 1.43
K330E | -0.363 | -0.203 | -0.43 | -0.25 | -0.485
K330L | -0.805 |  | -0.393 | -0.125 | 0.732
A327del | 0.442 |  | 0.867 |  | 0.725
A324del | -0.295 | -1.18 | -0.019 | -0.261 | -0.477
G329_K330insGS | 1.59 | 1.19 | 1.16 | 1.58 | 2.15
A327_S328del | 1.49 | 0.757 | 1.58 | 1.61 | 1.2
A333_Q334insG | -0.293 | 0.203 | 0.473 | 1.1 | 0.854
G335_E336del | 0.704 | 0.848 | 0.36 | 0.789 | 0.875
Q334_E336del | -0.05 | 0.301 | 0.107 | 0.284 | 0.375
G323_A324insGSG | 0.448 | -0.447 | 0.272 | 0.29 | -0.006
P325_E326insGS | 0.652 | 0.798 | 0.484 | 0.632 | 0.603
E336_P338del | 1.4 | 2.08 | 1.2 | 1.75 | 1.49
G332_A333insGS | 0.392 | -0.097 | 0.638 | 0.355 | 0.72
E336del | 1.6 | 0.427 | 0.72 | 1.64 | 1.15

Scores with a large standard error are left out. Two further conditions of the source, in which the scores hardly spread, are not listed. Read del as a deletion of the residues named and ins as an insertion between two positions. For part of these data: The data file names ogerin without a concentration.
